The values below come from the supplement of paper PMC7826260.

Common to all, as to test: uncleaved DNA left, log2 of reads against the no-enzyme library (log2 ratio); higher = less cleavage (more negative = more Rep cleavage of the k-mer); sequences stand for … in CTCGTCCG…ACCGGAGA
The subject of assay [1] is T1, Rep nickase domain of Muscovy duck circovirus.
T1 sequence (residues 1-111 of Rep, tag left off): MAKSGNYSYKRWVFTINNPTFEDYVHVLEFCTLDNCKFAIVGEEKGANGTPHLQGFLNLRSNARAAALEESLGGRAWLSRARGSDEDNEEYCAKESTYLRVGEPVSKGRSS
The method, then:
(§1)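 A pool of 90-nt single-stranded DNAs with seven random bases just before the constant AC of the nick site (name = the seven bases) was cut by 3 µM recombinant His6-SUMO-tagged Rep nickase domain (300 nM DNA, 50 mM HEPES pH 8.0, 50 mM NaCl, 1 mM MnCl2, 1 h, 37 °C, three replicates). Uncut DNA was amplified and sequenced.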

The subject of assay [2] is T2, Rep nickase domain of banana bunchy top virus.
T2 sequence (residues 1-94 of Rep, tag left off): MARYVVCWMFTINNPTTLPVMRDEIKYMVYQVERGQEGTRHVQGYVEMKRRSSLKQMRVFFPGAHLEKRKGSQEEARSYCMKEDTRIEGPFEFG
Here is the method: as §1
In assay [3] the test system is T3, Rep nickase domain of cabbage leaf curl virus.
T3 sequence (residues 1-116 of Rep, tag left off): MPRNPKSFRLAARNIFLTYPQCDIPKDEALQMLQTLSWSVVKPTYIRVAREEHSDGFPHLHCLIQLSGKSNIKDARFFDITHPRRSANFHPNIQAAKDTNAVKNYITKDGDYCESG
The method, then:
as §1

Assay [4] concerns T4, Rep nickase domain of chickpea chlorotic dwarf virus.
T4 sequence (residues 1-124 of Rep, tag left off): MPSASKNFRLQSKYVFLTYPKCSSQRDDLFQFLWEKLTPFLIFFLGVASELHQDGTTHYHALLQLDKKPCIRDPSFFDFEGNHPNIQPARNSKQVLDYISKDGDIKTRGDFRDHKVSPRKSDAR
Here is the method: as §1
The test system of assay [5] is T5, Rep nickase domain of faba bean necrotic yellows virus.
T5 sequence (residues 1-98 of Rep, tag left off): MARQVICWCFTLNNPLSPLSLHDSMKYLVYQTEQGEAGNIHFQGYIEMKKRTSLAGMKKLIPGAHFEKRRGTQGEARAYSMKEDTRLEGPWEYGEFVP
Here is the method:
as §1

The subject of assay [6] is T6, Rep nickase domain of maize striate mosaic virus.
T6 sequence (residues 1-117 of Rep, tag left off): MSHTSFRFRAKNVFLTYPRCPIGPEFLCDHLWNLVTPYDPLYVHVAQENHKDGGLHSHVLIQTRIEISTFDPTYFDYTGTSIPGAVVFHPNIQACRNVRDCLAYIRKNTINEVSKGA
Here is the method:
as §1

The test system of assay [7] is T7, Rep nickase domain of porcine circovirus 2.
T7 sequence (residues 2-116 of Rep, tag left off): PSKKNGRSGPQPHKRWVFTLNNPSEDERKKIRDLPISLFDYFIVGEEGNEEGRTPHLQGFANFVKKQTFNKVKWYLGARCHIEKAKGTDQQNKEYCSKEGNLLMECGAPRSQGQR
Here is the method:
as §1

Assay [8] relates to T8, Rep nickase domain of tomato golden mosaic virus.
T8 sequence (residues 1-124 of Rep, tag left off): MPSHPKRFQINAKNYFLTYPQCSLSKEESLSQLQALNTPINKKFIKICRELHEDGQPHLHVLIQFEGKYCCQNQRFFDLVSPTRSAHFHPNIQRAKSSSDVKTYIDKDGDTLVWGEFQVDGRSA
The method, then: as §1
The test system of assay [9] is T9, Rep nickase domain of tomato yellow leaf curl virus.
T9 sequence (residues 1-136 of Rep, tag left off): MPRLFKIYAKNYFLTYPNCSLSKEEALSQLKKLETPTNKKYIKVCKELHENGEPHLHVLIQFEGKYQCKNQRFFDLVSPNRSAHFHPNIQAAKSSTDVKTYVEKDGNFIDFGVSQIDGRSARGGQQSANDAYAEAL
Here is the method:
as §1

The subject of assay [10] is T10, Rep nickase domain of wheat dwarf virus.
T10 sequence (residues 1-137 of Rep, tag left off): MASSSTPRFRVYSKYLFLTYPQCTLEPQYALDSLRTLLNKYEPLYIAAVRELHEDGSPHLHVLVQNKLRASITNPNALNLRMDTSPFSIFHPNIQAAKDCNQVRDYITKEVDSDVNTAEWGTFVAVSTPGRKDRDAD
The method, then:
as §1

The list shows a part of the results. Each Rep nickase domain was tested in vitro on the same pool of single strands (1 h at 37 °C, 3 µM enzyme); the outer parts of the 90-letter strands are left off. Values are log2 of uncut reads against the no-enzyme pool; the lower, the more was cut; hits are not called. Counts are relative to all reads, so uncut sequences can rise above 0 when many others are cut.

For the sequence GTCGGCG, the “uncleaved DNA left (log2)” value in assay [1] was -0.0746; in [2], -0.0895; in assay [3], -0.723; in [4], -0.503; in [5] it was -0.113; in assay [6] it was -0.742. The “uncleaved DNA left (log2)” value is 0.0269 in [7], -0.0103 in assay [8], 0.0312 in [9] and -0.227 in [10].
GCCTAGA: the “uncleaved DNA left (log2)” value in assay [1] is 0.109; in assay [2], 0.0871; in [3], 0.212; in assay [4], 0.545; in assay [5], -0.00743; in assay [6], -0.274. In addition, the “uncleaved DNA left (log2)” value was 0.0527 in [7], 0.0627 in [8], 0.0549 in assay [9] and -0.0108 in assay [10].
Consider ATAACCA, for which the “uncleaved DNA left (log2)” value was -0.042 in assay [1]; 0.0937 in assay [2]; -0.471 in [3]; -2.12 in [4]; 0.108 in assay [5]; -0.446 in assay [6]. Also, the “uncleaved DNA left (log2)” value is -0.588 in assay [7], 0.0674 in assay [8], 0.093 in assay [9] and 0.0672 in assay [10].
On to GATTCTA, for which the “uncleaved DNA left (log2)” value is -0.248 in assay [1]; -0.0757 in assay [2]; 0.322 in [3]; -0.211 in assay [4]; 0.08 in assay [5]; 1.21 in assay [6]. In addition, the “uncleaved DNA left (log2)” value is -0.492 in assay [7], 0.0202 in assay [8], 0.0335 in [9] and 0.0413 in assay [10].
For the sequence GCGTATC, the “uncleaved DNA left (log2)” value in assay [1] is 0.0385; in assay [2] it was 0.0989; in assay [3] it was 0.229; in assay [4], 0.431; in [5] it was -0.0827; in [6], 0.268. For the same sequence, the “uncleaved DNA left (log2)” value in [7] is -0.00317; in [8], -0.0844; in assay [9], 0.00383; in [10], 0.0199.
ACGGTGT: the “uncleaved DNA left (log2)” value in assay [1] is 0.0783; in assay [2] it was -0.0387; in assay [3] it was -0.144; in [4], -0.473; in assay [5] it was 0.0014; in assay [6], -0.459. The “uncleaved DNA left (log2)” value in [7] is 0.115; in assay [8] it was 0.047; in [9], 0.0613; in assay [10], -0.0612.
As to AGATAAC, the “uncleaved DNA left (log2)” value was 0.0307 in [1]; 0.0593 in assay [2]; -0.368 in assay [3]; -1.23 in assay [4]; 0.11 in [5]; -0.279 in [6]. Further, the “uncleaved DNA left (log2)” value in assay [7] is 0.111; in [8] it was 0.0455; in assay [9] it was 0.0307; in assay [10], -0.0134.
As for GTAGTTC, the “uncleaved DNA left (log2)” value was 0.0512 in assay [1]; 0.0484 in assay [2]; 0.431 in [3]; 0.729 in assay [4]; -0.0261 in [5]; 1.6 in assay [6]. For the same sequence, the “uncleaved DNA left (log2)” value came out at 0.0654 in [7], 0.0476 in assay [8], 0.139 in assay [9] and 0.0479 in assay [10].
As to GGAGCCC, the “uncleaved DNA left (log2)” value in assay [1] is 0.0045; in assay [2], 0.0836; in assay [3], 0.551; in [4], 1.29; in [5] it was -0.0413; in assay [6], 1.71. Further, the “uncleaved DNA left (log2)” value in assay [7] was found to be 0.025; in assay [8], 0.0686; in assay [9], 0.0467; in [10], 0.0906.
In the case of GCCAAAG, the “uncleaved DNA left (log2)” value in assay [1] is 0.0523; in assay [2], 0.0853; in assay [3], -0.47; in assay [4], -0.241; in assay [5] it was 0.116; in assay [6], -0.956. The “uncleaved DNA left (log2)” value was 0.257 in assay [7], 0.147 in [8], 0.126 in assay [9] and -0.0921 in [10].
Regarding TATCCTA, the “uncleaved DNA left (log2)” value is -0.0377 in assay [1]; -0.0493 in assay [2]; -0.00388 in assay [3]; -2 in assay [4]; 0.0322 in [5]; -0.21 in assay [6]. For the same sequence, the “uncleaved DNA left (log2)” value was -0.203 in assay [7], -0.00467 in [8], 0.071 in assay [9] and 0.0886 in assay [10].
With TGCCGCG, the “uncleaved DNA left (log2)” value was -0.128 in assay [1]; -0.145 in assay [2]; -0.763 in assay [3]; 0.474 in assay [4]; 0.0218 in [5]; -0.497 in assay [6]. Further, the “uncleaved DNA left (log2)” value in [7] was 0.0658; in assay [8], -0.0702; in [9], -0.0738; in assay [10], -0.157.
For AACAATG, the “uncleaved DNA left (log2)” value in [1] is -0.114; in assay [2], -0.00563; in assay [3], -0.38; in assay [4] it was -0.383; in assay [5] it was -0.0405; in assay [6], -0.857. For the same sequence, the “uncleaved DNA left (log2)” value in assay [7] is 0.106; in assay [8] it was 0.141; in [9], -0.0152; in assay [10], -0.0213.
As for TCATCGG, the “uncleaved DNA left (log2)” value in assay [1] was 0.0814; in assay [2], 0.0328; in [3], 0.516; in assay [4], 1.46; in assay [5], -0.113; in assay [6] it was 1.97. Further, the “uncleaved DNA left (log2)” value in [7] was 0.137; in assay [8], 0.129; in assay [9], -0.0923; in [10], -0.00145.
For AGCCTGA, the “uncleaved DNA left (log2)” value was 0.258 in assay [1]; 0.122 in assay [2]; 0.197 in assay [3]; 0.738 in [4]; 0.031 in assay [5]; 1.67 in assay [6]. The “uncleaved DNA left (log2)” value in assay [7] amounted to 0.265; in assay [8], 0.161; in assay [9] it was 0.0225; in [10], 0.175.
